Data on 109 sequences can be found in publication PMC6212790.

Some of the results follow. At the low end of the ranking the order means little.

For the assay, the target named is T1, GST-Rok (full length) (UniProt O34857).
T1 sequence: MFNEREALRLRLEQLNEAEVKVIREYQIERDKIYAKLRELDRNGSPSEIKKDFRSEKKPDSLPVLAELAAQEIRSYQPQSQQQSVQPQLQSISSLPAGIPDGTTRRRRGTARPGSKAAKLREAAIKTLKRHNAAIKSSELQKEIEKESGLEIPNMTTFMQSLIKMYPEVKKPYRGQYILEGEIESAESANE
The experiment in a line: protein binding microarray.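 Note: rank score from −0.5 (least bound) to 0.5 (best bound).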 The note with it: Rok is a gene silencer of Bacillus subtilis; high values mean tight binding; most listed sequences are background and not binding sites; double strand, one strand shown.
AACGGATG returned a binding signal of -0.0352 E-score.
AAAGGTGA yielded a binding signal of -0.0487 E-score.
Under CATAACGA stands 0.202 E-score.
Under CAATTGTG stands 0.000958 E-score; under ACAGTCCT, -0.0828 E-score; under ACGGGACA, -0.213 E-score.
In the case of CTGCTCCA, the binding signal is -0.195 E-score.
As for ATACGCTG, the figure is -0.0793 E-score.
Consider GAACTCAA, for which the binding signal stood at 0.0343 E-score.
As for AAGGAGTG, the figure is -0.314 E-score.
Under CGTTGGAC stands -0.283 E-score; under ACGCCCCT, -0.344 E-score; under GACCAATC, -0.0645 E-score.
With CGGCGCCA, the binding signal is -0.298 E-score.
As for CTCGGTCC, the figure is -0.308 E-score; as for ACGTTATG, -0.0734 E-score.
As for GTGAAAAA, the figure is -0.0619 E-score; as for TTACTCAA, 0.0566 E-score.
Under CTTGAATC stands -0.083 E-score; under GACACTCC, -0.209 E-score; under GGATGACC, -0.0389 E-score.
The sequence ACCGCACG gave a binding signal of -0.077 E-score.
TCGAGTCA registered a binding signal of -0.124 E-score.
As for ACACCCCC, the figure is -0.257 E-score.
Under CTCGAGAA stands 0.0455 E-score; under GTCCTGAA, -0.0102 E-score.
As for AACTGGAG, the figure is -0.0563 E-score.
Regarding ACATTTGG, the binding signal came to 0.0586 E-score.
Under CCACCCAG stands -0.0762 E-score; under GATGAGCA, 0.00806 E-score; under GGTTATAC, 0.134 E-score.
Turning to ATTTTCCA, the binding signal was 0.16 E-score.
Take AAACGATG: the binding signal worked out at 0.0574 E-score.
Under GTTGATTA stands 0.134 E-score.
Sequence TAAATGTA came in with a binding signal of 0.411 E-score.
As for ACAGGGTG, the figure is -0.205 E-score; as for AGTAGCTC, 0.0983 E-score; as for ACAATGCC, -0.051 E-score.
Under CGCCGCAA stands -0.286 E-score.
As for GAGAAAAA, the figure is 0.0593 E-score.
Sequence CATAAATG had a binding signal of 0.107 E-score.
As for GCACAGTA, the figure is -0.0912 E-score; as for ACTCCTCT, -0.166 E-score.
Under GATCGTGA stands -0.118 E-score; under AAATATAT, 0.429 E-score; under CTAAGGGA, -0.154 E-score.
Under CATAGGTA stands 0.219 E-score; under GGCTAAGA, 0.000408 E-score; under ACTGTCCT, 0.0227 E-score.
AAGCGCGC yielded a binding signal of -0.212 E-score.
As for AATTAATA, the figure is 0.256 E-score.
As for CATCAGAC, the figure is -0.105 E-score; as for ATGCCACG, -0.206 E-score; as for AAACATTT, 0.0971 E-score.
Under AAACCAAA stands -0.0651 E-score; under CAAGTTTC, 0.168 E-score.
Sequence CGACATAC yielded a binding signal of -0.0148 E-score.
For the sequence GGGATACC, the binding signal was -0.0354 E-score.
Under GCGGCGCC stands -0.371 E-score; under ATGCGGTC, -0.111 E-score; under CGATAACG, 0.109 E-score.
Consider AGAATGGG, for which the binding signal stood at 0.00345 E-score.
As for CGACTATA, the figure is 0.151 E-score.
As for CGCTCGTA, the figure is 0.0563 E-score.
As for ACTTCTTC, the figure is -0.0926 E-score; as for AGAATGTC, -0.0645 E-score; as for AATACTTG, 0.0926 E-score.
On to CATCAAGC, for which the binding signal was -0.0317 E-score.
As for AGAAATAG, the figure is 0.286 E-score; as for ACAAAAGG, -0.131 E-score; as for GATCAGAA, 0.11 E-score.
As for CCGGCACG, the figure is -0.0421 E-score.
Under ACAACCGT stands -0.00907 E-score; under CAGCGTGG, -0.173 E-score.
In turn, CTCCTACA showed a binding signal of 0.0462 E-score.
Under CCCGTAGC stands -0.0597 E-score; under ACGTTAAG, -0.0138 E-score; under AACTGTTA, 0.251 E-score.
Under AGCCCACA stands -0.257 E-score.
For CGTATACG, the binding signal came out at 0.184 E-score.
As for CACGGTGA, the figure is -0.0261 E-score.
Under AACTGAAT stands 0.0203 E-score.
As for AAGGACGC, the figure is -0.218 E-score; as for CGACCGTC, -0.219 E-score; as for TCTTCGCA, 0.0798 E-score.
GACTCTAC: the binding signal was -0.0199 E-score.
As for GCCATGGA, the figure is -0.00407 E-score; as for CCCTACGA, -0.238 E-score.
Under CCAATTGA stands -0.16 E-score; under AAAAGTGA, -0.0863 E-score.
As for AGACCGGA, the figure is -0.0742 E-score; as for ACATTAGG, -0.00784 E-score; as for GGATCAAA, -0.145 E-score.
Regarding GATGGAGC, the binding signal is -0.104 E-score.
As for AGCCGCCA, the figure is -0.269 E-score; as for AATCTAGA, 0.349 E-score; as for TTACGAAA, 0.279 E-score.
Under ATTTTCGG stands 0.213 E-score; under GTAGGGAC, -0.124 E-score; under GTAAGTAA, 0.207 E-score.
Under GTCTGTAA stands 0.146 E-score; under ACCGCTTC, -0.0999 E-score.
With AACCTGGC, the binding signal was -0.0762 E-score.
As for GATTGCTA, the figure is 0.233 E-score; as for CAATTATG, 0.175 E-score.
For the sequence CTATGTCC, the binding signal is -0.0473 E-score.
As for AGGACCTC, the figure is -0.158 E-score.
As for ATTGATAA, the figure is 0.236 E-score; as for AACCGCCA, -0.244 E-score.
